Reference: PubChem BioAssay AID485294 (National Center for Advancing Translational Sciences (NCATS), 2010)
Out of some 370,000 compounds screened, about 150 (0.041%) were called active. This list was built around the results that the source calls inconclusive (neither active nor inactive); the mix of calls is not that of the screen. Calls follow the shape of the dose curve; as a rule, active = well fitted inhibition curve with a large enough effect; inconclusive = small, poorly fitted or top-dose-only effect; inactive = flat fitted curve, though single readings scatter. No potency is given beside an inconclusive call; the fits are too rough.
Also: nearly all actives have a fitted effect of over 25% in size.
Potency is read from the fitted curve at half-maximal effect; tags tell the direction and shape of the fitted curve.

The molecules below were run against Beta-lactamase (Escherichia coli (strain K12)) (UniProt P00811) (assay: qHTS Inhibitors of AmpC Beta-Lactamase (assay with detergent)). Settings: AmpC hydrolysis of nitrocefin, absorbance 480 nm, 0.01% Triton; series mostly up to 114 µM.
Chain of UniProt P00811 (P00811 whole entry, looked up): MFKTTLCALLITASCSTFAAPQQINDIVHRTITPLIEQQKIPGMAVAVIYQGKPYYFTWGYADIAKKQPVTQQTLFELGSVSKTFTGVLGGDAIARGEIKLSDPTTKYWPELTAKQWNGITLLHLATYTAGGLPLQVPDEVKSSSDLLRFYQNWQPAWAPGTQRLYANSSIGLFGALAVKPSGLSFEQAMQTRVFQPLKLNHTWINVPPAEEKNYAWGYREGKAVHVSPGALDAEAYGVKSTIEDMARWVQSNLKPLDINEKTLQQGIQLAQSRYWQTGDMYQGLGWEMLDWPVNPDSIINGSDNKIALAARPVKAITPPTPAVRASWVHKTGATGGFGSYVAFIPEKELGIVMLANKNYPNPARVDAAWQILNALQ
Method in brief: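 AmpC (5.3 nM in the dispensed reagent) in 20 mM phosphate pH 7.0 with 0.01% (detergent screen) or 0.0001% Triton X-100 was preincubated with compounds for 15 min at room temperature. Nitrocefin was then added from an 800 uM solution, and hydrolysis was followed at 480 nm.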
With `COc1ccc(C(=O)Cc2ccc(F)cc2)c(OC)c1` the Potency was “inactive”. In the case of `O=C(O)c1cccc(NS(=O)(=O)c2ccc3c(c2)OCCCO3)c1`, the Potency is reported as inconclusive [inhibitor, full curve, poor fit]. `O=C(Nc1ccc(Cl)cc1C(=O)O)c1ccc2c(c1)C(=O)N(Cc1ccco1)C2=O` was tested, and the Potency was “inactive”. In the case of `CN1C(=O)c2ccccc2N(C)C1c1cccs1` (stereo not given), the Potency is reported as inconclusive [inhibitor, full curve, poor fit]. For `CC(=O)c1c(C)n(C)c2ccc(OC(=O)c3ccc([N+](=O)[O-])cc3)cc12`, the Potency was “inactive”. For `Cc1ccc(NC(=O)CC(C(=O)O)c2ccccc2)cc1` (stereo not given), the Potency was inconclusive [inhibitor, full curve]. For `Cc1cccc(-c2nnc(SCC(=O)Nc3nc4c(s3)CCCC4)n2C)c1`, the Potency was inconclusive [inhibitor, single point]. For `CC(OC(=O)CNC(=O)c1cccc(F)c1)C(=O)NC1CCCCC1C` (stereo not given), the Potency was inconclusive [inhibitor, single point]. `O=C(Nc1ccc(Cl)c(S(=O)(=O)N2CCOCC2)c1)c1cn2ccccc2n1` was tested, and the Potency was “inactive”. `C=CCOc1cccc(C(=O)N2CCCC(CCC(=O)NCc3ccccc3F)C2)c1` (stereo not given) was tested, and the Potency was “inactive”. For `O=C(c1cccc(S(=O)(=O)NCc2ccccc2)c1)N1CCN(Cc2ccccc2)CC1`, the Potency was inconclusive [inhibitor, single point]. `CC(Sc1nc2ccccc2s1)C(=O)NCc1ccc2c(c1)OCO2` (stereo not given) was tested, and the Potency was “inactive”. `O=C(OCc1nnc(-c2ccccc2)o1)c1cc(Cl)ccc1[N+](=O)[O-]` was tested, and the Potency was “inactive”. For `CC(=O)c1c(C)n(-c2ccc(Cl)cc2)c2ccc(OC(=O)COc3ccccc3)cc12`, the Potency was “inactive”. For `COc1ccccc1CNC(=O)CCCCn1c(=O)c2ccccc2n(Cc2ccccc2C)c1=O`, the Potency was “inactive”. For `NS(=O)(=O)c1ccc(CCNCc2cc(Br)ccc2OCc2ccccc2)cc1`, the Potency was “inactive”. With `O=C(Nn1cnc2ccccc2c1=O)C1CCCCC1` the Potency was inconclusive [inhibitor, single point]. In the case of `CCCc1cc(=O)[nH]c(Nc2ccccc2O)n1`, the Potency is reported as “inactive”. `COc1ccc(/C(C)=N/NC(=O)CNC(=O)C(c2ccccc2)c2ccccc2)c(OC)c1` was tested, and the Potency was “inactive”. In the case of `COc1ccc(-c2nc3scc(CCNS(=O)(=O)c4c(C)cc(C)cc4C)n3n2)cc1OC`, the Potency is reported as “inactive”. In the case of `O=S(=O)(Cc1ccccc1)Nc1ccc(S(=O)(=O)NCC2CCCO2)cc1` (stereo not given), the Potency is reported as inconclusive [inhibitor, single point]. `CCc1cc2c(Nc3ccccc3O)nc(C)nc2s1` was tested, and the Potency was inconclusive [inhibitor, partial curve, poor fit]. `O=C(NC1CCCCC1)C(c1ccc2ncccc2c1)N(Cc1ccc(F)cc1)C(=O)c1ccc2c(c1)OCCO2` (stereo not given) was tested, and the Potency was inconclusive [inhibitor, partial curve, poor fit]. For `Cc1ccc(O)c(NC(=S)NC(=O)CC(C)C)c1`, the Potency was inconclusive [inhibitor, full curve, poor fit]. In the case of `COC(=O)c1ccc(OC)c(CSc2nnc(COc3ccc(Cl)cc3)o2)c1`, the Potency is reported as inconclusive [inhibitor, partial curve]. For `CCn1c(C(=O)N2CCC(C(=O)N3CCN(c4ccc(OC)cc4)CC3)CC2)cc2sccc21`, the Potency was inconclusive [inhibitor, single point]. `CN(Cc1nccs1)C(=O)C1CCC(=O)N(Cc2ccccc2F)C1` (stereo not given) was tested, and the Potency was inconclusive [inhibitor, full curve, poor fit]. `Cc1occc1-c1nnc(SCC(=O)Nc2ccccc2)n1C(C)c1ccccc1` (stereo not given) was tested, and the Potency was inconclusive [inhibitor, full curve, poor fit]. In the case of `O=C(CN1CCN(S(=O)(=O)c2ccccc2)CC1)Nc1ccc(Cl)cn1`, the Potency is reported as inconclusive [inhibitor, single point]. With `Cc1ccn2cc(-c3cccc(NC(=O)CCC(=O)O)c3)nc2c1` the Potency was “inactive”. With `CCOC(=O)CSc1nc(-c2ccc(F)cc2)cc(C(F)(F)F)c1C#N` the Potency was “inactive”. `CCSc1nc2sc3c(c2c(=O)[nH]1)CC(C)(CC)OC3` (stereo not given) was tested, and the Potency was inconclusive [inhibitor, full curve, poor fit]. `CCOC(=O)N1CCN(S(=O)(=O)N2CCCC(C(=O)NCc3ccc(OC)cc3)C2)CC1` (stereo not given) was tested, and the Potency was “inactive”. With `Cc1nn(C)cc1S(=O)(=O)N1CCCCC1C` (stereo not given) the Potency was inconclusive [inhibitor, full curve]. In the case of `CCOC(=O)CN1Cc2cccc(C(=O)O)c2C1=O`, the Potency is reported as inconclusive [inhibitor, full curve, poor fit]. For `COc1ccc(C(=O)Nc2ccc3[nH]ncc3c2)cc1`, the Potency was “inactive”. With `CC1CCN(S(=O)(=O)c2ccc3c(ccc(=O)n3CC(=O)NCc3ccc(Cl)cc3)c2)CC1` the Potency was “inactive”. For `CCc1ccccc1NC(=S)N(Cc1ccc(OC)cc1)CC1CCC(C(=O)O)CC1` (stereo not given), the Potency was “inactive”. `CN(C)C1=NCCN1CC1CCCCC1` was tested, and the Potency was “inactive”. For `C[n+]1c(-c2ccccc2)sc2ccccc21`, the Potency was inconclusive [inhibitor, full curve, poor fit]. With `COc1cc(NS(=O)(=O)c2ccc(Nc3nc(-c4ccccn4)cs3)cc2)nc(OC)n1` the Potency was “inactive”. `CCOC(=O)Cn1c(S(=O)(=O)Cc2ccc(Cl)cc2)nc(-c2ccccc2)c1-c1ccccc1` was tested, and the Potency was inconclusive [inhibitor, full curve, poor fit]. With `C/C(N)=C(/C#N)C(=O)CSc1nnnn1-c1ccc(C)cc1C` the Potency was inconclusive [inhibitor, full curve, poor fit]. In the case of `Cc1cc(C(F)F)n2ncc(C(=O)NC3CCCCCC3)c2n1`, the Potency is reported as inconclusive [inhibitor, partial curve]. In the case of `Nc1nc2nccc(-c3ccc(Cl)cc3)n2n1`, the Potency is reported as inconclusive [inhibitor, full curve, poor fit]. In the case of `COCCN(CCOC)S(=O)(=O)c1ccc(OC)cc1`, the Potency is reported as inconclusive [inhibitor, single point]. For `O=C(NNC(=O)C1CCCCC1)c1cnccn1`, the Potency was inconclusive [inhibitor, partial curve]. With `O=C(/C=C/c1ccccc1Cl)Nc1cccc(O)c1` the Potency was “inactive”. `COc1cc2c(cc1OC)-c1c(OC)c(OC)cc3c1[C@H](C2)[N+](C)(C)CC3` was tested, and the Potency was inconclusive [inhibitor, partial curve, poor fit]. With `Cc1ccc(NC(=O)c2cc(S(=O)(=O)N3CCCCCC3)ccc2F)cc1F` the Potency was “inactive”. In the case of `O=C(NCc1cccnc1)/C(=N\O)c1ccccc1`, the Potency is reported as inconclusive [inhibitor, partial curve]. `Brc1cccc(-c2nnc(SCc3ccon3)n2-c2ccccc2)c1` was tested, and the Potency was inconclusive [inhibitor, full curve, poor fit]. In the case of `Cc1ccc(C)c(N(C(=O)c2csnn2)C(C(=O)NC2CCCC2)c2ccncc2)c1` (stereo not given), the Potency is reported as inconclusive [inhibitor, partial curve, poor fit]. `CC(=O)c1ccc(NC(=O)CSc2nnc(-c3ccncc3)o2)cc1` was tested, and the Potency was inconclusive [inhibitor, full curve, poor fit]. In the case of `CCN1C(=O)[C@H]2[C@@H](c3ccc(C)cc3)N3C(=O)N(c4ccccc4)C(=O)[C@@]3(Cc3ccccc3)[C@H]2C1=O`, the Potency is reported as inconclusive [inhibitor, partial curve]. In the case of `Cc1cc(C(=O)Nc2cccc(-c3ccc(N4CCOCC4)nn3)c2)ccc1[N+](=O)[O-]`, the Potency is reported as inconclusive [inhibitor, full curve, poor fit]. For `Cc1cnc(=O)[nH]c1SCc1ccc([N+](=O)[O-])cc1`, the Potency was inconclusive [inhibitor, full curve, poor fit]. For `CCC(=O)N1c2ccccc2C(C)(c2ccccc2)CC1(C)C` (stereo not given), the Potency was “inactive”. With `Cc1ccc2nc(-c3ccc(SCC(=O)Nc4ccc5c(c4)OCCO5)nc3)[nH]c2c1` the Potency was inconclusive [inhibitor, full curve, poor fit]. `CCOCCCN1C(=O)CN(C2CCC(C)CC2)C(=O)C1c1ccc(C)cc1` (stereo not given) was tested, and the Potency was inconclusive [inhibitor, partial curve]. `Cc1cc(C)cc(N(CC(=O)O)S(=O)(=O)c2c(C)noc2C)c1` was tested, and the Potency was inconclusive [inhibitor, full curve, poor fit]. With `CCc1nnc(NC(=O)C2Cc3ccccc3C(=O)O2)s1` (stereo not given) the Potency was inconclusive [inhibitor, full curve, poor fit]. For `CCN(CC)S(=O)(=O)c1cccc(-c2n[nH]c(=S)n2/N=C/c2ccc(Br)cc2)c1`, the Potency was inconclusive [inhibitor, single point]. For `Cc1cc(C(=O)OCC(=O)Nc2sc3c(c2C#N)CCC(C)C3)c2ccccc2n1` (stereo not given), the Potency was “inactive”. In the case of `CCOc1ncccc1C(=O)N(CC)CC(=O)NCc1ccc(Cl)cc1`, the Potency is reported as inconclusive [inhibitor, full curve, poor fit]. With `CCOc1ccccc1NS(=O)(=O)c1c(C)noc1C` the Potency was inconclusive [inhibitor, full curve, poor fit]. In the case of `CCc1ccc(-c2nnn(CC(=O)N(C3CCCC3)C3CCS(=O)(=O)C3)n2)cc1` (stereo not given), the Potency is reported as inconclusive [inhibitor, single point]. For `O=C(C1=C[C@H](c2csc3ccccc23)C[C@H](OCCCCO)O1)N1CCN(Cc2ccccc2)CC1`, the Potency was “inactive”. `COc1ccccc1-c1nnc(SC(C)C(=O)O)n1-c1ccccc1` (stereo not given) was tested, and the Potency was “inactive”. In the case of `Cc1ccc(C(=O)CC(=O)c2ccccc2)cc1`, the Potency is reported as inconclusive [inhibitor, full curve].
